The other results are listed elsewhere or left out. For part of these data: At the low end of the ranking the order means little. For part of these data: The protein was read in a cell extract, so binding may be indirect.
Legend:
Details in all cases: 20 mM HEPES pH 7.9, 100 mM NaCl, 1 mM DTT, 0.2 mg/mL BSA, 0.02% Triton X-100, 2% milk, 0.4 mg/mL salmon testes DNA; 1 h; temperature not stated; high values mean tight binding; double strand, one strand shown; sequences stand for … in GCCTAGCAC…GTGCTAGGTCTTGATTCGCTTGACGCTGCTG
[1] = target: PU.1 (IVT) (UniProt P17947); assay: protein-binding microarray (PBM)
[2] = target: T1, FLI1 (endogenous, THP-1 nuclear extract) (UniProt Q01543); assay: nuclear extract protein-binding microarray (nextPBM)
T1 sequence: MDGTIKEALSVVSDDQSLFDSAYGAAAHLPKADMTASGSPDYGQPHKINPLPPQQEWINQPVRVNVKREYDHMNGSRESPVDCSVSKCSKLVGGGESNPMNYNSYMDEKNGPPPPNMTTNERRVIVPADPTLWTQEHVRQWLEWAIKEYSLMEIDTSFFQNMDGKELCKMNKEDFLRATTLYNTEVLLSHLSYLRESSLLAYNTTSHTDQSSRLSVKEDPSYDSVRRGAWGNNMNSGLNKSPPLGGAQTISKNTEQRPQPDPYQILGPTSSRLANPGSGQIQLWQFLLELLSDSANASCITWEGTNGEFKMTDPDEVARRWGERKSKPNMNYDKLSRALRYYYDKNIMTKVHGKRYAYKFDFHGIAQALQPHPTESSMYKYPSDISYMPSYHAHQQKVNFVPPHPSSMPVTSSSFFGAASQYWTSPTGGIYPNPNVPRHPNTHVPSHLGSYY

[3] = test system: PU.1 (endogenous, THP-1 nuclear extract) + IRF8 (endogenous, THP-1 nuclear extract); assay: as above

Row | Sequence | binding signal [1] | binding signal [2] | binding signal [3]
1 | AAAAAAAGGAAATGAAAGGA | 3.51 z-score | 2.24 z-score | 0.188 z-score
2 | CAAAAGAGGAAGCGAAACTG | 6.51 z-score | 4.05 z-score | 79.3 z-score
3 | ATTTTAGGGAACTGAAAGCC | 4.2 z-score | 1.19 z-score | 3.24 z-score
4 | TGGAAGAGGAAGTGAAACTA | 6.34 z-score | 4.31 z-score | 84.8 z-score
5 | TCCTGGAGGAAGTGAAACTG | 3.2 z-score | 3.4 z-score | 54.4 z-score
6 | AAGGGGAGGAAGTGAAACTC | 3.36 z-score | 3.26 z-score | 37.9 z-score
7 | TGAGAGGAGAAGTTAAACCT | 1.46 z-score | 0.365 z-score | -0.786 z-score
8 | GTATCAAGGAACTGAAACTT | 1.14 z-score | 0.425 z-score | 12.2 z-score
9 | CTGCCAGGTAAGTGAAAGCA | -0.606 z-score | -0.253 z-score | 2.35 z-score
10 | GATAAGAGGGACTGAAAGCT | -0.0466 z-score | -0.464 z-score | -0.375 z-score
11 | TGAGAGGAGAAGTGAAACCT | 1.44 z-score | 0.807 z-score | 23.9 z-score
12 | TGGCAGAGGAAGTGAAACTT | 3.93 z-score | 3.55 z-score | 38.1 z-score
13 | ACGACGTGGAAGTGAAACTT | 1.57 z-score | 1.1 z-score | 31.4 z-score
14 | TGAAAGTGGAAGTGAAACTT | 3.7 z-score | 2.3 z-score | 57.7 z-score
15 | TAAAGGAAGAACTGAAACCA | 0.677 z-score | 0.594 z-score | 15.6 z-score
16 | CTGCCTGGGAAGTGAAAGCA | 1.39 z-score | 0.745 z-score | 5.14 z-score
17 | TGTGAGGAGAAGTGAAACCT | 0.98 z-score | 0.527 z-score | 22.6 z-score
18 | AGAAAGAGGAAGAGAAACTA | 4.62 z-score | 2.48 z-score | 20.3 z-score
19 | TAAAGGAGGAACTGGAACCA | 3.36 z-score | 1.17 z-score | 0.84 z-score
20 | AAAAAACGGAACTGAAACTG | 5.85 z-score | 2.85 z-score | 58.3 z-score
21 | TGAGAGGAGAAGTGGAACCT | 1.79 z-score | 0.599 z-score | 0.758 z-score
22 | TGGCAGTGGAAGTGAAACTA | 1.07 z-score | 1.21 z-score | 51.2 z-score
23 | TGAGAGGAGAAGTGAAATCT | 1.39 z-score | -0.132 z-score | 2.1 z-score
24 | AAAAAAAGGAAAGGAAAGTA | 1.27 z-score | 1.32 z-score | -0.0838 z-score
25 | GGAAAGAGGAAGAGAAACTG | 4.4 z-score | 1.98 z-score | 14.9 z-score

Row | Sequence | binding signal [1] | binding signal [2] | binding signal [3]
26 | GAAAAAGGGAACTGAAACTG | 5.47 z-score | 2.65 z-score | 60.6 z-score
27 | AAAAAGAGGAAGAGAAACTT | 6.04 z-score | 2.83 z-score | 14.9 z-score
28 | AAAAAGGAGAAGTGAAACTG | 5.92 z-score | 3.24 z-score | 76.1 z-score
29 | TAAAGCAGGAACTGAAACCA | 2.13 z-score | 1.8 z-score | 24 z-score
30 | GGAATAGGGAAGTGAAACTG | 6.68 z-score | 3.85 z-score | 67.3 z-score
31 | CTGCCAGGGAAGTGAGAGCA | 1.15 z-score | 0.617 z-score | 0.528 z-score
32 | AAAATGAGGAAGAGAAACTG | 4.78 z-score | 1.82 z-score | 13.7 z-score
33 | GATAAGAGGAATTGAAAGCT | 1.2 z-score | 0.422 z-score | 0.846 z-score
34 | CTGCCCGGGAAGTGAAAGCA | 0.495 z-score | 1.5 z-score | 4.77 z-score
35 | AAAAAAAGGATATGAAAGTA | 0.953 z-score | 1.27 z-score | 11.7 z-score
36 | TGAGAGGAGAAGAGAAACCT | -0.343 z-score | -0.544 z-score | -0.468 z-score
37 | TGGCAGAGGAAGTGAAACTA | 3.6 z-score | 3.91 z-score | 57.7 z-score
38 | CTGCCAGGGAAGTGAAAGGA | 1.27 z-score | 0.591 z-score | 1.31 z-score
39 | CTGGCAGGGACCTGAAACTC | -0.741 z-score | -0.876 z-score | 5.04 z-score
40 | CTGGGAGGGAACTGAAACTC | 0.859 z-score | 0.442 z-score | 11.5 z-score
41 | TGGCAGAGGAAGTAAAACTA | 3.6 z-score | 2.3 z-score | 0.929 z-score
42 | TTGGGCAGGAACTGAAACCT | 0.802 z-score | 1.7 z-score | 9.02 z-score
43 | TAAAGGAGGAACTGAAACCG | 3.73 z-score | 2.04 z-score | 33.1 z-score
44 | CGGCCAGGGAAGTGAAAGCA | 1 z-score | 0.821 z-score | 6 z-score
45 | TAAAGGAGGGACTGAAACCA | -0.169 z-score | -0.11 z-score | 7.54 z-score
46 | AGAATGAGGAACTGAAACTA | 5.83 z-score | 3.45 z-score | 63.7 z-score
47 | ATCTTGCAGAAGTGAAACTC | 0.71 z-score | 0.00275 z-score | 29.2 z-score
48 | AGAAACAGGAAGTGAAACCA | 7.3 z-score | 5.79 z-score | 77 z-score
49 | AAAAGAAGGAAGTGAAACTC | 5.43 z-score | 3.52 z-score | 68.3 z-score
